Data taken from the supplement of paper PMC4723716.
± gives the uncertainty stated by the source. The full ranking holds about 9,900 compounds; the median of “viability index relative to DMSO control” is about 1, and the lowest 2% start at about 0.85. This is one part of the list.

The compounds below were run on Plasmodium falciparum NF54 stage V gametocytes (assay: viability index relative to DMSO control (fraction); higher = less gametocyte killing). Conditions: 2.5 µM, library set: Broad Institute DOS, incubation time: 72 h.
In short: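 Gametocytes (P. falciparum NF54, stage V) were treated with compound at 2.5 µM for 72 hr at 37°C in low oxygen, in serum-free medium at 0.75% gametocytemia and 1.25% hematocrit. Counts of 20–70 µm2 red particles, taken from one field per well after MitoTracker Red CMXRos with saponin, were divided by the plate mean of solvent-only wells. This ratio is the viability index.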
`CO[C@H]1CN(C)C(=O)c2cc(NS(=O)(=O)c3ccc(Cl)cc3)ccc2OC[C@@H](C)N(C(=O)NC(C)C)C[C@H]1C` was tested, and the viability index was 1.08 ± 0.087. `Cc1ccc(-c2ccc([C@H]3[C@@H](CO)N4C(=O)CN(C(=O)NC(C)C)C[C@@H]34)cc2)cc1` gave a viability index of 1.06 ± 0.066. `Cc1ccc(-c2ccccc2[C@@H]2[C@H](C#N)N(c3ncc(-c4ccccc4)s3)[C@H]2CO)cc1` was tested, and the viability index was 1.18 ± 0.093. `C[C@@H]1CN([C@H](C)CO)C(=O)CCCn2nncc2CO[C@@H]1CN(C)C(=O)c1cc(-c2ccccc2)on1` was tested, and the viability index was 0.984 ± 0.055. Compound `C[C@H]1CN([C@@H](C)CO)C(=O)Cc2cc(NS(=O)(=O)c3ccc(F)cc3)ccc2O[C@H]1CN(C)Cc1ccncc1` has a viability index of 1 ± 0.12. With `COc1cccc(S(=O)(=O)N2C[C@@H](O)COC[C@@H]3O[C@H](CC(=O)N4CCN(c5ccccc5)CC4)CC[C@H]32)c1` the viability index was 1.03 ± 0.013. With `CCCC(=O)N1C[C@@]2(C1)CN(Cc1ccccc1F)[C@H](CO)c1c2c2ccc(OC)cc2n1C` the viability index was 0.935 ± 0.17. Compound `CC[C@H]1C/C=C\C[C@@H](c2ccccc2)NC(=O)CCC(=O)N1` has a viability index of 1.04 ± 0.026. For `COc1cccc(CN2C[C@@H]3N[C@H](C2)[C@@H]3c2ccc(-c3ccccc3C)cc2)c1`, the viability index was 1.06 ± 0.094. `C[C@@H]1CN([C@@H](C)CO)C(=O)c2cc(NS(C)(=O)=O)ccc2O[C@@H]1CN(C)C` gave a viability index of 1.01 ± 0.02. Work on `O=C(C[C@H]1CC[C@H]2[C@@H](COC[C@H](O)CN2CCC(F)(F)F)O1)NCC1CC1` yielded a viability index of 1.06 ± 0.055. Compound `CCCNC(=O)N1[C@@H]2CNC[C@H]1[C@H]2c1ccc(-c2ccccc2)cc1` has a viability index of 1.003 ± 0.0091. In the case of `CCCC(=O)Nc1ccc2c(c1)C(=O)N(C)C[C@H](OC)[C@@H](C)CN(Cc1ccc(F)cc1)[C@H](C)CO2`, the viability index is reported as 0.95 ± 0.032. With `CN1C(=O)c2cc(NC(=O)c3cccc(F)c3)ccc2OC[C@@H]2O[C@@H](CC(=O)NCc3ccccc3Cl)CC[C@@H]21` the viability index was 0.999 ± 0.063. For `CO[C@H]1CC[C@H]2CCOc3c(C#N)cccc3C(=O)N(C)C[C@H](c3ccccc3)CC(=O)N(C)C[C@H]1O2`, the viability index was 1.017 ± 0.0038. `CN1C(=O)c2cc(NC(=O)Cc3cccs3)ccc2OC[C@H]2O[C@@H](CC(=O)NCCc3ccncc3)CC[C@H]21` was tested, and the viability index was 1.16 ± 0.07. Work on `COc1ccccc1NC(=O)N[C@H]1CC[C@H](CCNS(=O)(=O)c2ccc(Cl)cc2)O[C@H]1CO` yielded a viability index of 0.918 ± 0.015. `COc1cccc(CNC(=O)C[C@@H]2CC[C@@H]3[C@H](COc4ccc(NC(=O)c5cccs5)cc4C(=O)N3C)O2)c1` showed a viability index of 0.94 ± 0.041. `C/C=C/c1cnc2c(c1)C(=O)N([C@H](C)CO)C[C@H](C)[C@@H](CN(C)C(=O)Nc1cccc(OC)c1)O2` showed a viability index of 1.031 ± 0.009. Work on `C[C@H]1CN([C@@H](C)CO)C(=O)c2cc(NC(=O)C3CC3)ccc2O[C@H]1CN(C)S(=O)(=O)c1ccccc1` yielded a viability index of 1.09 ± 0.076. In the case of `O=C(c1cnccn1)N1C[C@H]2[C@@H](c3ccccc31)[C@@H](CO)N2CC1CCCC1`, the viability index is reported as 1.06 ± 0.093. `Cc1ccc(S(=O)(=O)Nc2ccc3c(c2)C(=O)N([C@H](C)CO)C[C@@H](C)[C@H](CN(C)S(=O)(=O)c2cccs2)OCCCC[C@@H](C)O3)cc1` was tested, and the viability index was 1.04 ± 0.032. Work on `CCNC(=O)c1cc2c(c(-c3cccc(-c4cccc(C(=O)N(C)C)c4)c3)n1)[C@H](CCO)N([S@@](=O)C(C)(C)C)C2` yielded a viability index of 1.07 ± 0.016. Work on `C[C@@H]1CN([C@H](C)CO)C(=O)Cc2cc(NS(=O)(=O)c3cn(C)cn3)ccc2O[C@@H]1CN(C)Cc1ccc2c(c1)OCO2` yielded a viability index of 0.962 ± 0.15. Compound `O=C(Nc1ccccc1)N1CC(=O)N2[C@H](C1)[C@H](c1ccc(C#CC3CCCCC3)cc1)[C@@H]2CO` has a viability index of 1.12 ± 0.054. `CN1CCN(C(=O)c2cc3c(c(-c4cccc(C#CCC5CCCC5)c4)n2)[C@H](CCO)N(S(=O)C(C)(C)C)C3)CC1` (stereo not given in full) showed a viability index of 1.04 ± 0.014. For `COc1cc(CN2C[C@@H]3N[C@H](C2)[C@H]3c2ccc(-c3ccc(C#N)cc3)cc2)cc(OC)c1`, the viability index was 1.03 ± 0.07. In the case of `O=C(Nc1cccc(F)c1)N1CCCCN2[C@H](CO)[C@@H](c3ccc(C#Cc4cccnc4)cc3)[C@@H]2C1`, the viability index is reported as 1.07 ± 0.078. Work on `O=C(C[C@@H]1C[C@@H]2c3cc(NC(=O)Nc4ccccc4F)ccc3O[C@@H]2[C@H](CO)O1)NCc1ccccn1` yielded a viability index of 1.03 ± 0.059. `C[C@@H]1CN([C@@H](C)CO)C(=O)CCCn2nncc2CO[C@@H]1CN(C)C(=O)CCC(F)(F)F` gave a viability index of 1.04 ± 0.055. `CCCC(=O)Nc1ccc2c(c1)OC[C@H](C)N(S(=O)(=O)c1cn(C)cn1)C[C@@H](C)[C@@H](OC)CN(C)C2=O` gave a viability index of 1.06 ± 0.026. `COc1ccc2c3c([nH]c2c1)[C@@H](CO)N(C)C[C@]31CCN(CC1)C(=O)c1ccccn1` gave a viability index of 0.889 ± 0.13. Work on `C[C@@H]1CN([C@@H](C)CO)C(=O)Cc2cc(NC(=O)Nc3ccc(F)cc3)ccc2O[C@H]1CN(C)S(C)(=O)=O` yielded a viability index of 1.05 ± 0.012. `COc1ccccc1CNC(=O)C[C@H]1C=C[C@@H](NC(=O)CC2CC2)[C@@H](CO)O1` showed a viability index of 1.04 ± 0.051. In the case of `C/C=C/c1ccc([C@H]2[C@@H](CO)N[C@@H]2CNC(=O)C2CC2)cc1`, the viability index is reported as 1.06 ± 0.012.
